Laboratory results reported in PubChem BioAssay AID1460 (National Center for Advancing Translational Sciences (NCATS), 2008).
Values joined by “and” are separate entries in the source; they are usually repeats but may differ in a detail not shown here. Identical values can stand only once. Out of some 270,000 compounds screened, about 5,800 (2.1%) were called active. Inconclusive results, whose numbers are uncertain, are shown with a selection of clear calls. The call rests on the fitted dose curve; in most records, active means well fitted inhibition curve with a large enough effect; inconclusive means small, poorly fitted or top-dose-only effect; inactive means flat fitted curve, though single readings scatter. Potencies of inconclusive entries are doubtful fits and often do not repeat.
Further: nearly all actives have a fitted effect of over 55% in size.
On the % scale 0 is the no-effect control and ±100 the full control effect; potency means the concentration at half of the fitted maximal effect; tags describe the fitted curve by direction and shape.

Each molecule was assayed against Microtubule-associated protein tau (Homo sapiens) (UniProt P10636) (assay: qHTS for Inhibitors of Tau Fibril Formation, Thioflavin T Binding). Conditions: recombinant tau K18 P301L, heparin-induced fibrillization, ThT fluorescence; series mostly up to 57.4 µM; activity, negative = inhibition: at the top concentration.
Chain of UniProt P10636 (P10636 whole entry, looked up): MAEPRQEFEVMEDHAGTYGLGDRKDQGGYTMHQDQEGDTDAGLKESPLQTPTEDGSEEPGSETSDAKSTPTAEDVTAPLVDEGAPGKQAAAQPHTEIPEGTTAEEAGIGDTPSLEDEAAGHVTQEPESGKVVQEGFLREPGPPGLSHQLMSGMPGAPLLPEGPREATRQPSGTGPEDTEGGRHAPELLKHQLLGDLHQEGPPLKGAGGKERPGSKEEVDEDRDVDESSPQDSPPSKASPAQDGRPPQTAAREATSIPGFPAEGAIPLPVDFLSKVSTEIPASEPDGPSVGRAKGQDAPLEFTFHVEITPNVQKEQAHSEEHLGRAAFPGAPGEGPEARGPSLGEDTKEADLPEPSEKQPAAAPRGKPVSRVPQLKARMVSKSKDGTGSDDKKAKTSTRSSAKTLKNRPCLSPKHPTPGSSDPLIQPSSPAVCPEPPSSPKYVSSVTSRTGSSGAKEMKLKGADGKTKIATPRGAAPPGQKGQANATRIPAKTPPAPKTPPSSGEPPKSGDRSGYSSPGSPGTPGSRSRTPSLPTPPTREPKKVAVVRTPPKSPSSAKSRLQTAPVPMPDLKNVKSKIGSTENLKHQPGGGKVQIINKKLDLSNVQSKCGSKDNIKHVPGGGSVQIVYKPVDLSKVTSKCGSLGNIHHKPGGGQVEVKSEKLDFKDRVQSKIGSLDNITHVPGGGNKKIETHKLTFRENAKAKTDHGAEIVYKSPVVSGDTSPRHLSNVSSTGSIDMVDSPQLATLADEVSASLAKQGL
Outline: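 Fibril formation assay: tau K18 P301L at 15 uM with trace Alexa 594 label, heparin inducer 20 uM, pH 7 sodium acetate buffer, 37 C for 6 hr; endpoint ThT signal.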
`CCN(CC(=O)Nc1c(C(=O)OC)[nH]c2ccccc12)c1ccc2c(c1)OCO2` was tested, and the Potency was inconclusive: 4.47 µM [inhibitor, partial curve]. `O=c1c2[nH]c3ccc(F)cc3c2ncn1CCC1=CCCCC1` was tested, and the “activity, negative = inhibition” value was inactive: -2.21%. In the case of `C=CC(C1=CC(=O)C(OC)=CC1=O)c1ccccc1` (stereo unspecified), the Potency is reported as active: 15.8 µM. In the case of `CCOC(=O)OCC1OC(C#Cc2ccccc2)C=CC1OC(=O)OCC` (stereo unspecified), the Potency is reported as inconclusive: 3.16 µM [inhibitor, partial curve]. With `COc1cccc(-n2c(=O)c3sccc3n(Cc3cc(=O)n4cc(Cl)ccc4n3)c2=O)c1` the “activity, negative = inhibition” value was inactive: -12.3%. With `N#Cc1ccsc1NC(=O)CSc1nnc(-c2ccccc2)o1` the Potency was inconclusive: 31.6 µM [inhibitor, single point]. With `NC(=O)c1ccsc1NC(=O)c1ccc(S(=O)(=O)N2CCCc3ccccc32)cc1` the “activity, negative = inhibition” value was inactive: -3.49%. `Cc1nc2nc(SCc3ccc([N+](=O)[O-])cc3)[nH]c2cc1Br` was tested, and the Potency was inconclusive: 5.62 µM [inhibitor, full curve]. `Cc1noc2ncnc(Sc3c(Cl)cccc3Cl)c12` was tested, and the Potency was inconclusive: 39.8 µM [inhibitor, single point]. For `Fc1ccc(NCc2n[nH]c(=S)n2Cc2ccccc2)cc1`, the “activity, negative = inhibition” value was inactive: -19.2%. With `O=C1c2ccccc2C(=O)C1(c1ccccc1)N1CCN(c2cccc(C(F)(F)F)c2)CC1` the “activity, negative = inhibition” value was inactive: -13.3%. In the case of `CCC(O)C1CCN(Cc2cn(Cc3ccccc3)nc2-c2cc3ccccc3o2)CC1` (stereo unspecified), the Potency is reported as inconclusive: 39.8 µM [inhibitor, partial curve]. `COc1ccc(NC(=O)CCN2C(=O)/C(=C/c3ccc4c(c3)OCO4)SC2=S)cc1` was tested, and the Potency was inconclusive: 0.251 µM [inhibitor, full curve]. `COC(=O)c1cn(Cc2cccc(C)c2)nn1` was tested, and the “activity, negative = inhibition” value was inactive: 2.02%. For `COc1ccc(/C=C/C(=O)Oc2ccc(/C=N/NC(=O)c3ccccc3)cc2)cc1OC`, the Potency was inconclusive: 1.58 µM [inhibitor, full curve]. For `CCOC(=O)c1c(CCl)nc2ccccc2c1-c1ccccc1`, the Potency was inconclusive: 39.8 µM [inhibitor, single point]. `NCC1OC(n2cnc3c(=O)[nH]c(N)nc32)C(O)C1O` (stereo unspecified) was tested, and the “activity, negative = inhibition” value was inactive: -3.21%. `Cc1ccc(NC(=O)N2CCC(CN3CCCCCC3)CC2)c(Cl)c1` was tested, and the Potency was inconclusive: 35.5 µM [inhibitor, single point]. `O=C(CCc1nnc(CCCCc2ccccc2)o1)N1CCC(N2CCCC2)CC1` was tested, and the Potency was inconclusive: 28.2 µM [inhibitor, partial curve]. In the case of `CCOC(=O)/C(=C\c1ccc(OC(F)F)cc1)C1=Nn2c(nnc2-c2ccc(Cl)cc2)SC1`, the Potency is reported as inconclusive: 28.2 µM [inhibitor, single point]. For `Cc1ccc(-c2nc3sc(CCNC(=O)c4ccco4)c(C)n3n2)cc1`, the Potency was inconclusive: 3.16 µM [inhibitor, partial curve, poor fit]. In the case of `COC(=O)c1cc(=O)c(O)c2c(O)c(O)ccc2c1`, the Potency is reported as active: 3.55 µM. With `COc1ccc(NS(=O)(=O)c2cccc(C(=O)N/N=C/c3ccc4c(c3)OCCO4)c2)cc1` the “activity, negative = inhibition” value was inactive: 11.5%. With `Cc1cc(NS(=O)(=O)c2ccc(NC(=S)NC(=O)c3ccccc3)cc2)no1` the “activity, negative = inhibition” value was inactive: 3.94%. With `Fc1ccc(C(c2nnc(-c3ccccc3)o2)N2CCN(c3ccccc3)CC2)c(Cl)c1` (stereo unspecified) the “activity, negative = inhibition” value was inactive: 2.38%. With `COc1cccc(-c2nc(OC(C)C)c3ccccc3n2)c1` the Potency was inconclusive: 39.8 µM [inhibitor, single point]. With `O=C(Nc1cccnc1)c1cnc2ccccc2n1` the “activity, negative = inhibition” value was inactive: -7.41%. In the case of `N#Cc1ccc2ccn(CC(=O)N3CCCc4ccccc43)c2c1`, the “activity, negative = inhibition” value is reported as inactive: -2.07%. `CCOC(=O)CC(=O)CSc1nc2c(c(-c3cccs3)c1C#N)CCC2` was tested, and the Potency was inconclusive: 14.1 µM [inhibitor, partial curve]. In the case of `COc1ccc(C(=O)Nc2nc(C)cc(C)n2)cc1`, the Potency is reported as inconclusive: 14.1 µM [inhibitor, partial curve]. In the case of `CCN=C1SC(C(=O)Nc2cccc(Br)c2)CC(=O)N1CC` (stereo unspecified), the “activity, negative = inhibition” value is reported as inactive: -2.67%. In the case of `COc1ccccc1NCc1nnc2n1CCCCC2`, the “activity, negative = inhibition” value is reported as inactive: -9.44%. In the case of `Cc1ccc2c(c1)N(CC(=O)NCCCN1CCCCC1)C(=O)c1cccnc1O2`, the “activity, negative = inhibition” value is reported as inactive: 5.5%. `CN(C)c1ccc(/C=N/NC(=S)NCc2ccccc2)cc1` was tested, and the Potency was inconclusive: 12.6 µM [inhibitor, partial curve]. `COc1ccc(OC)c2c1nc1n2CCS1` was tested, and the Potency was inconclusive: 44.7 µM [inhibitor, single point]. For `CN(C)/C(CN1CCN(C=O)CC1)=C1\N=C(c2ccccc2)OC1=O`, the Potency was inconclusive: 39.8 µM [inhibitor, single point]. In the case of `CCCn1c(N2CCN(Cc3ccc(Cl)cc3)CC2)nc2ccccc21`, the Potency is reported as inconclusive: 20 µM [inhibitor, single point]. For `Cc1ccc(C(=O)Nc2cc3cc(Cl)ccc3oc2=O)cc1`, the “activity, negative = inhibition” value was inactive: -9.87%. `Cc1c2c(nc3c(C(=O)NC4CCCCC4C)cnn13)CCCC2` (stereo unspecified) was tested, and the Potency was inconclusive: 20 µM [inhibitor, partial curve]. In the case of `CCOc1ccc2c(O)csc2c1`, the Potency is reported as active: 25.1 µM. `CS(=O)(=O)c1ccc2nc(NC(=O)Nc3ccc(Cl)cc3)sc2c1` was tested, and the “activity, negative = inhibition” value was inactive: 5.04%. `Nc1n[nH]c(=S)n1-c1ccc(Cl)cc1` was tested, and the Potency was inconclusive: 39.8 µM [inhibitor, single point]. `COc1ccccc1NS(=O)(=O)c1cc(NC(=O)C2CCC2)ccc1N1CCCCC1` was tested, and the Potency was inconclusive: 28.2 µM [inhibitor, partial curve]. With `CCN(C(=O)CSc1nnnn1C)c1c(N)n(Cc2ccccc2)c(=O)[nH]c1=O` the “activity, negative = inhibition” value was inactive: 7.84%. In the case of `CC(C)(C)c1ccc(S(=O)(=O)/C=C\C#N)cc1`, the Potency is reported as inconclusive: 20 µM [inhibitor, partial curve, poor fit]. `COc1cccc(NC(=O)CC2SC(=Nc3ccccc3)NC2=O)c1` (stereo unspecified) was tested, and the “activity, negative = inhibition” value was inactive: -17.3%. With `CCCOc1ccc(/C(O)=C2/C(=O)C(=O)N(CCCN3CCOCC3)C2c2ccncc2)cc1` (stereo unspecified) the Potency was inconclusive: 15.8 µM [inhibitor, partial curve]. For `COc1ccc(C(=O)/C=C/Nc2ccc(S(=O)(=O)Nc3cccc(C(C)=O)c3)cc2)cc1`, the Potency was inconclusive: 11.2 µM [activator, partial curve]. In the case of `CCOC(=O)c1ccc(NC(=O)C(=O)NCCc2ccc(OC)cc2)cc1`, the Potency is reported as inconclusive: 562 nM [inhibitor, full curve] and inconclusive: 631 nM [inhibitor, full curve]. `O=Cc1c(N2CCN(c3cccc(Cl)c3)CC2)nc2ccccn2c1=O` was tested, and the Potency was inconclusive: 28.2 µM [inhibitor, partial curve]. With `CC(C)CC(=O)Nc1ccccc1N1CCN(c2ccccc2)CC1` the Potency was inconclusive: 35.5 µM [inhibitor, partial curve, poor fit]. In the case of `CNS(=O)(=O)c1ccc2c(c1)NC(=O)C1CCCN21` (stereo unspecified), the Potency is reported as inconclusive: 35.5 µM [inhibitor, single point]. `O=C(CSc1ccc2c(c1)OCCO2)Nc1cccnc1Cl` was tested, and the “activity, negative = inhibition” value was inactive: 1.1%. With `Nc1c(NCc2ccccc2)c(=O)[nH]c(=O)n1Cc1ccccc1` the Potency was inconclusive: 35.5 µM [inhibitor, single point]. `CCOc1cc(C(=O)NC)cc(OCC)c1OCC` was tested, and the “activity, negative = inhibition” value was inactive: 6.09%. `COc1cc(Cl)c(C)cc1NC(=O)c1nn(-c2ccc(C)cc2)c(=O)n(C)c1=O` was tested, and the “activity, negative = inhibition” value was inactive: -4.08%. `CCOc1ccc(S(=O)(=O)N(C(C)=O)c2ccc3oc(C)c(C(=O)OC)c3c2)cc1` was tested, and the Potency was inconclusive: 20 µM [inhibitor, partial curve]. For `CCOC(=O)c1cnc2c(OC)cccc2c1N1CCN(c2ccc(OC)cc2)CC1`, the Potency was inconclusive: 22.4 µM [inhibitor, partial curve, poor fit]. `CCOCCCNC(=O)C(c1ccc(C)cc1)N(Cc1ccc2c(c1)OCO2)C(=O)CNC(C)=O` (stereo unspecified) was tested, and the “activity, negative = inhibition” value was inactive: -2.8%. `Cc1ccc(C2=Nc3cccnc3C(c3ccccc3)=NN2)cc1` was tested, and the Potency was inconclusive: 12.6 µM [inhibitor, partial curve]. In the case of `C=CCn1c(=N)n(CC(=O)c2cccc([N+](=O)[O-])c2)c2ccccc21`, the Potency is reported as inconclusive: 6.31 µM [inhibitor, partial curve]. `CC(=O)c1c(N2CCN(c3ccccn3)CC2)nc(=S)n(-c2ccccc2)c1C` was tested, and the Potency was inconclusive: 0.0631 µM [activator, full curve, poor fit]. In the case of `Cc1cccc(C)c1OC(=O)CSc1nnc(CNC(=O)c2ccccc2)o1`, the Potency is reported as inconclusive: 0.631 µM [inhibitor, full curve]. For `Cc1cc(C)nc(S/C=C/C(=O)c2ccccc2F)n1`, the Potency was inconclusive: 7.08 µM [inhibitor, full curve]. For `CC(=O)Nc1ccc(N2C(C(C)=O)=NN(c3ccc(Cl)cc3)C2c2sccc2C)cc1` (stereo unspecified), the Potency was inconclusive: 39.8 µM [inhibitor, single point]. For `COc1ccc(/C=N\NC(=O)c2cccc([N+](=O)[O-])c2)cc1Cn1cc([N+](=O)[O-])cn1`, the Potency was inconclusive: 11.2 µM [inhibitor, partial curve]. In the case of `NC(CCC(=O)N[C@@H](CS)C(=O)NCC(=O)O)C(=O)O` (stereo partly specified), the Potency is reported as active: 31.6 µM. `COc1ccc(-n2nc([N+](=O)[O-])c(=NCCc3ccc(C)cc3)n2O)cc1` was tested, and the Potency was inconclusive: 12.6 µM [inhibitor, partial curve]. `COc1ccc(/C=N/Nc2cc(N3CCCC3)nc(N3CCCC3)n2)cc1` was tested, and the Potency was inconclusive: 12.6 µM [inhibitor, partial curve]. In the case of `Cc1ccc(NC(=O)CN(c2ccc(Cl)cc2)S(=O)(=O)c2cc([N+](=O)[O-])ccc2Cl)cc1`, the Potency is reported as inconclusive: 14.1 µM [inhibitor, partial curve]. `COC(=O)CN1C(=O)CSc2ccc(S(=O)(=O)Nc3ccc(C(C)=O)cc3)cc21` was tested, and the “activity, negative = inhibition” value was inactive: 2.97%.
